Test results from the supplement of paper PMC10126150.
Sequences with one replicate were seen in a single cluster, so their values are uncertain.

Tested on: ATP
Test: switch fluorescence ratio, 500 uM ATP over buffer (Cy3 cluster intensity, sum of 5 cycles each) (fold (ratio)); higher = stronger signal-on switching upon ATP binding; sequences stand for … in TCGTCGGCAGCGTCAGATGTGTATAAGAGACAGTTTTTTTTTTTTTTTTTTTTTTTTT…TC
Conditions: aptamer strand: ATP DNA aptamer (quencher-CACCTGGGGGAGTATTGCGGAGGAAGG + anchor), 100 nM annealed; ATP concentration: 500 uM; one replicate
How it was run: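 Cy3-labelled switching-strand clusters on a modified Illumina MiSeq flow-cell were annealed to 100 nM quencher-labelled ATP aptamer, imaged in selection buffer, then imaged after 15 min with 500 uM ATP at 22 °C. Five buffer/ATP cycles ran, with NaOH stripping and re-annealing between them. The fluorescence ratio is summed target-cycle over summed buffer-cycle Cy3 intensity per cluster, averaged per switch-domain sequence. Clusters outside 100-1000 RFU were excluded.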
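Note: ATP exposure 15 min at 22 °C before imaging.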

Row | Sequence | switch fluorescence ratio
1 | GGAACTGATG | 1.04
2 | ATGCAGCAAA | 1.03
3 | CGTTTGCCGC | 1.19
4 | ATACGGAGTG | 0.968
5 | AGTAACGTAT | 1.03
6 | ATGGGGCGCA | 0.981
7 | TTCGGACGAG | 1.02
8 | GTGGCGCGC | 0.97
9 | TTACATTATC | 1.04
10 | GATTAAAGAT | 0.974
11 | CACTTGATC | 1.01
12 | TGTGGGTACC | 0.959
13 | ATGTGACCTA | 1.01
14 | AGTTCACTAG | 0.954
15 | TAACGAGGCG | 1.01
16 | TCCCATTGAA | 0.994
17 | CGACACATTC | 3.22
18 | ACCTTTAAGT | 1.02
19 | CACGAAAAGA | 1.2
20 | AACGTCATTG | 1.1
21 | TCGCATTCCT | 1.63
22 | GTGTTGGGAG | 0.991
23 | TTGCCTAGTC | 1.2
24 | AATGCCGGTC | 0.859
25 | AGTCACTGGT | 0.988

Row | Sequence | switch fluorescence ratio
26 | GGGGAGCACG | 0.981
27 | GTCCTTTAAG | 1.03
28 | CACTCACATT | 1.33
29 | TCAGAACCGC | 1.13
30 | CCAAGTGAGC | 1.05
31 | GGAGTATACG | 1.06
32 | CCTCAATTTC | 2.76
33 | AGGTAACCCT | 1.02
34 | AAGTGGTTCT | 1.02
35 | ATCGCATCTG | 1.01
36 | TTACAGTCGC | 1.1
37 | CAGGAACTGG | 0.998
38 | GCCCAAAAAT | 0.991
39 | ATTAGCAGAT | 0.977
40 | ACAACCTAAG | 1.03
41 | TGTGTGGCAC | 0.985
42 | TTCAACATGA | 1.03
43 | ACTTCCTAGT | 1.09
44 | GATGGTTCGG | 1.01
45 | CTCAGACAGT | 1.16
46 | TGCGACTTGC | 1.14
47 | AGCCGTGAGT | 0.984
48 | ACAGTTATCC | 1.03
49 | TCCTCACGGA | 1.04
50 | GGGACCGTAC | 1.29

Row | Sequence | switch fluorescence ratio
51 | TAACGATTCC | 1.2
52 | GCACGATCC | 1.08
53 | GACCGGTATA | 0.99
54 | TTTACTTAAC | 1.12
55 | CCGCATCGTG | 1.98
56 | CTATAATTGA | 1
57 | AACCGACCAA | 2.78
58 | GATCTACTGG | 0.984
59 | AGGAGCTGTG | 0.984
60 | GTTCACCATC | 0.991
61 | ATCTTAAACG | 1.03
62 | TCTCGCCGAT | 1.07
63 | GCGTCCCTTT | 0.971
64 | GGAGGCGATG | 0.948
65 | CACCTATGAT | 1.34
66 | ACAGATTGCA | 1.03
67 | GCTAATTAGT | 0.943
68 | ACTCACAAGA | 1.31
69 | AATCCTGCAC | 1.34
70 | AAGACATCTA | 1
71 | AGCGGAATCC | 1.09
72 | CCAATCAACC | 1.03
73 | CCCATTTTCT | 0.978
74 | ATACAATAGC | 1.15
75 | AAGGACGATT | 1.01

Row | Sequence | switch fluorescence ratio
76 | ACCTGAGCCC | 1.05
77 | TAGCTTATGG | 1.02
78 | CGTCTCTGCT | 1.04
79 | GGCCCCGGGC | 0.997
80 | GATTGACGGT | 1.04
81 | AAAAGTTG | 1.08
82 | CGGCCGACTT | 0.995
83 | CGCGGTTTCG | 1.01
84 | TGGGGGCC | 1.05
85 | TGGATTCCAC | 1.01
86 | TAAAAGAGT | 0.975
87 | GATGACGTAA | 1.12
88 | ATGAAACCCC | 1.27
89 | GCAAAATCCA | 1.02
90 | TTTCTAGTGT | 0.98
91 | CGGTATCTAA | 1.04
92 | GATCCGGTAC | 4.42
93 | CATCTTGGCG | 0.962
94 | CTCGTAGCTC | 1.47
95 | CATATACCCG | 0.974
96 | TTCGAAGAAG | 0.976
97 | TGAGTGATAC | 1.44
98 | TGTATTCGGA | 0.943
99 | ATTCTCAGT | 0.992
100 | AGCCTCCCAT | 1.34

Row | Sequence | switch fluorescence ratio
101 | GTTCGACGGT | 1.02
102 | ATATTTCGAG | 1.07
103 | CAGCAGGATA | 1.01
104 | TGTAACCTGA | 1.5
105 | GCATATGCTT | 1.01
106 | TCATGCCAAT | 0.993
107 | TTTAAATTCC | 1.91
108 | GAGCCAATT | 1
109 | TAGGTAGAGC | 1.05
110 | GTAGGAAGAA | 1.01
111 | CGATCATATA | 1.02
112 | AGATGGGATC | 1.04
113 | GGTTTGGAAG | 0.958
114 | AGAGGGCCTG | 0.951
115 | AGAGCGTGTG | 1.02
116 | CTAGTACGAT | 1.02
117 | TGAGGCTGAC | 0.965
118 | GTTGCACTAC | 2.81
119 | ATGCACTATA | 1.07
120 | GGGATCCCGT | 0.994
121 | CGTGATCGTG | 0.949
122 | TGTTGGATAA | 0.992
123 | AGTAGGACAC | 1.02
124 | TAATCGATGC | 0.98
125 | AGTACGTTCG | 1.04

Row | Sequence | switch fluorescence ratio
126 | GATGTAGAGA | 1
127 | TCGCCCCGGG | 1.41
128 | AGTTGGTTCG | 0.972
129 | CCAGGCGTTC | 1.1
130 | GCGAGTCTTC | 0.977
131 | GGTTAGGGAA | 0.968
132 | TCACCTTTCT | 1.27
133 | CGCACTGGGC | 1.02
134 | GGTGATATAT | 0.961
135 | GGATTTTGCT | 0.974
136 | AATCGGAGTG | 0.996
137 | TACGTTGCAG | 1
138 | ATTATGTTGC | 1.03
139 | AATAGACTAT | 0.993
140 | ATCGTACCCT | 1.12
141 | CTAATGAATC | 0.985
142 | TTCAAATTCG | 1.03
143 | GAGACAGCAT | 1.05
144 | TCGAACTAAA | 1.03
145 | TTCGAAGGTG | 1.14
146 | TTGTATATTA | 1.01
147 | TACTCATTCG | 1.07
148 | CGTTGGTC | 0.97
149 | CAATATCTGG | 1
150 | TTCTGTGGTT | 1.03

Row | Sequence | switch fluorescence ratio
151 | GGGACCGTCT | 0.976
152 | GAAGGACGGT | 0.995
153 | TAGAATATCG | 0.964
154 | TCACTATACG | 1.3
155 | TGCCACGCAT | 1.05
156 | GACCGCGA | 1.87
157 | GGAGTTGTAT | 0.947
158 | TTTAAAT | 0.99
159 | ATAGTCCATG | 0.941
160 | TAGCCTTAAA | 0.95
161 | CTTTGGCGAG | 0.986
162 | GTGTCGTGCG | 0.98
163 | CGGGCGTTGG | 0.926
164 | AGGTGAGCCC | 0.928
165 | GAATGTGTGC | 0.997
166 | ATTGGGGGG | 1.03
167 | ATCGTATTCC | 1.01
168 | TTACCCCGGG | 2.63
169 | CGGTCTTTCC | 1.06
170 | GGTCTTGATT | 1.02
171 | CGTGTCGTGG | 1.06
172 | CATTAAGAGT | 1.03
173 | CTCCTTTAAC | 1.24
174 | ACAGTTTCCA | 0.988
175 | CTCGAGTCGA | 0.974

Row | Sequence | switch fluorescence ratio
176 | ATTTGCAAGA | 1.05
177 | CTTTTATGCC | 1
178 | GGCTTACAAT | 0.991
179 | AAACCCAATG | 1.08
180 | ATATAAGCAT | 1.05
181 | GAAGATTCAT | 0.994
182 | AGGGTTCGTC | 1.04
183 | GTAGATTGGT | 0.97
184 | AGAACGACAC | 1.92
185 | ATGTTCAGTC | 1.01
186 | GTACTCGCGG | 1.08
187 | AATGAGGTAC | 1
188 | CCAGGACAGG | 1.03
189 | GAACGGCAGA | 0.968
190 | CGAACCCCTA | 1.13
191 | TGATCGCCAG | 0.999
192 | TCGATTATGA | 1.01
193 | AGGTTCGCGG | 0.946
194 | CACGCCAGTC | 1.03
195 | TTGCCCAGTT | 1.37
196 | ATATTACCTG | 1.06
197 | GTGGTAGGAC | 1.04
198 | GGTGAACGTA | 1.02
199 | TTAGGCAAGC | 1.18
200 | CGATGCTAAT | 1.32
